We go through 44 sequences from the supplement of paper PMC11417369.

The other results are listed elsewhere or left out.

In this assay the test system is PfSIP2 AP2 domain 1 (GST-tagged). Description: gcPBM binding intensity (ln(normalized median fluorescence intensity)); higher = stronger DNA binding. The essentials:
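GST-tagged P. falciparum DNA-binding domains produced in E. coli were incubated for 1 h on an Agilent 4 × 180k array of primer-extended double-stranded 36-bp intergenic genomic probes with negative controls. Binding intensity is the highest Masliner-normalised natural-log median intensity across replicate spots of either probe orientation, with bound protein detected by Alexa488 anti-GST antibody at 488 nm.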
On to “ACGTAATTAATTCATCAGATATAATTAATAATAATA [XGTACX_negctrl_site550]”, for which the “gcPBM binding intensity (ln)” value came out at 6.98.

In the case of “AATATATTTGTGTATGTGCGCAGTGTGTAATTTATT [GTGCAC_site9765]”, the “gcPBM binding intensity (ln)” value was 7.52.

As to “CATCTCATATTTTGAAGTACTAAGAAAAGATATAAA [XGTACX_site6867]”, the “gcPBM binding intensity (ln)” value was 7.07.

In the case of “TAATATGCATAAAATTGTACAAACTTACATATAATA [XGTACX_site2752]”, the “gcPBM binding intensity (ln)” value amounted to 7.08.

Turning to “TTTTCTTGACCTATTATTCTTCTCATAGTATAATAT [GTGCAC_negctrl_site641]”, the “gcPBM binding intensity (ln)” value turned out to be 6.98.

Take “TTCATAGAATTATATATTTTAAAAAAAAAAATAATT [CACACA_negctrl_site175]”: the “gcPBM binding intensity (ln)” value turned out to be 6.65.

Regarding “TTTTTTATAGGACATGCATGTTGTAGAGCTGTATAT [TGCATGCA_site704]”, the “gcPBM binding intensity (ln)” value amounted to 7.41.

Turning to “TGTCAAAATATGTATACACACAATTTTTTTTTTTTT [CACACA_site2465]”, the “gcPBM binding intensity (ln)” value is 6.83.

With ATTCATTTACCAATGGTGCAATATATTTTTATAATG, the “gcPBM binding intensity (ln)” value worked out at 10.3.

As for “TAATAAATAAAATAGAGTACAGGGATTTCATTAAAT [XGTACX_site8979]”, the “gcPBM binding intensity (ln)” value came out at 6.9.

Consider “TATATTACTTATATTTGTACACAGAAATATAAATCA [XGTACX_site13]”, for which the “gcPBM binding intensity (ln)” value amounted to 6.82.

For the sequence “TTTTTCATAAGAAGCACACAAAAAATGATAGAGAAT [CACACA_site1417]”, the “gcPBM binding intensity (ln)” value was 7.52.

Regarding “AAAAAAAAAATATATTGTACAAATAGATATGTCAAT [XGTACX_site122]”, the “gcPBM binding intensity (ln)” value was determined as 6.84.

Turning to “AAAGAAAGTACCTTCACACATATAAGAATATAATAT [CACACA_site5214]”, the “gcPBM binding intensity (ln)” value turned out to be 6.93.

In the case of “TGAAATACGAATTATTGTACTTATGTGTAAGATGGC [XGTACX_site4472]”, the “gcPBM binding intensity (ln)” value was 7.41.

As to “AATATATTTTAATATACACACATATATGCTCTTTAA [CACACA_site9371]”, the “gcPBM binding intensity (ln)” value amounted to 6.9.

As to “TTATTTTTTTTGTGTTGTACAATTTATTACTACTAA [XGTACX_site346]”, the “gcPBM binding intensity (ln)” value stood at 7.19.

As to “AAACAAATATGTAGCACACATTCACATAATATATTT [CACACA_site2335]”, the “gcPBM binding intensity (ln)” value was determined as 7.21.

With “GTATTTATAATACGGCGTACATAAAAAAAAAAAAAA [XGTACX_site3705]”, the “gcPBM binding intensity (ln)” value was 7.41.

Regarding “TTATTTATGTGTAGGGCATGCAATCGTGTTTTTAAA [TGCATGCA_site735]”, the “gcPBM binding intensity (ln)” value came out at 7.14.

As to “TTATAATATATATCTGCATGTTGCTTTGGGGCTTTA [TGCATGCA_site712]”, the “gcPBM binding intensity (ln)” value worked out at 6.95.

“TATATTAAACAATATACACACATTAATGTAGACATA [CACACA_site8889]”: the “gcPBM binding intensity (ln)” value worked out at 6.71.

On to “GAAAATTCTTAAGGCACACACATATAAGATATATAC [CACACA_site6410]”, for which the “gcPBM binding intensity (ln)” value amounted to 6.83.

Consider “TTTCAGACAAAAAAAAAAAAAAAAAAGAGGAGAATA [CACACA_negctrl_site254]”, for which the “gcPBM binding intensity (ln)” value was found to be 6.64.

With “TTTAAGCAAAGACACACACACATATTTATATTTATA [CACACA_site6295]”, the “gcPBM binding intensity (ln)” value amounted to 6.9.

On to “AAACATTTATACAAAGCACACAATTTTTAACTTTTA [CACACA_site2627]”, for which the “gcPBM binding intensity (ln)” value is 6.82.

For “AACCTTTTAAGAGTTGCACACGTACAAAAAAAAAAA [CACACA_site9159]”, the “gcPBM binding intensity (ln)” value stood at 7.5.

In the case of “AATAAAAAAAAAAAAAAAAAAAAAAACCTGAGGAGT [CACACA_negctrl_site1140]”, the “gcPBM binding intensity (ln)” value turned out to be 6.84.

“TTATTCATAAAAACAAAAAACAAAAATGAAATAGGA [CACACA_negctrl_site1123]”: the “gcPBM binding intensity (ln)” value stood at 7.03.

For “TATGATATAATATACACACATACATATATATATATA [CACACA_site510]”, the “gcPBM binding intensity (ln)” value worked out at 9.

As to “TATTATGTCTAAAATAACATATTAATATATTATTTC [CACACA_negctrl_site285]”, the “gcPBM binding intensity (ln)” value was 6.89.

For the sequence “TTAATATTTTATTTCACACACATAAATGCCCCAAAC [CACACA_site1887]”, the “gcPBM binding intensity (ln)” value turned out to be 7.72.

With “AGAGTTCTCCTATGCACACAAAAAACTTTCATTTAT [CACACA_site4193]”, the “gcPBM binding intensity (ln)” value was found to be 8.78.

Regarding “CATCATATAAATTCAAGTACAAGAAAAAGTAATATA [XGTACX_site2383]”, the “gcPBM binding intensity (ln)” value was determined as 6.96.

Turning to “AAATAATTTTTATTTGTACACACATACATATATATT [CACACA_site8240]”, the “gcPBM binding intensity (ln)” value was 6.96.

Take “TAAATAAAGATATATACACACATATTTATATTTATA [CACACA_site6431]”: the “gcPBM binding intensity (ln)” value came out at 6.75.

For the sequence “ACAAAATTGAAATTCACACAAAAACTATACTTTTTA [CACACA_site4638]”, the “gcPBM binding intensity (ln)” value worked out at 6.75.

On to “ATATCTACTTTTTTATGTACGAAAAAAATACGGATT [XGTACX_site8937]”, for which the “gcPBM binding intensity (ln)” value was found to be 7.18.

Consider “TATATATATATTAATAGTACATATTATGTAAGCCTA [XGTACX_site2826]”, for which the “gcPBM binding intensity (ln)” value came to 8.57.

“TTTTTTTTTTTTTTTGTGCACAATATAATTTTTAAT [GTGCAC_site9747]”: the “gcPBM binding intensity (ln)” value was 8.64.

As for “AAAAAATACATACATACACACATATATATATATATA [CACACA_site913]”, the “gcPBM binding intensity (ln)” value came to 9.82.

For the sequence “TCCTCTTATAATTCGTGTCCACATATATCATACAAT [XGTACX_site1523]”, the “gcPBM binding intensity (ln)” value was determined as 7.53.

“ATAAAACAAATGAGTACACACACATAAAAATTGAAA [CACACA_site7949]”: the “gcPBM binding intensity (ln)” value amounted to 7.13.

For the sequence “TACGGATATATATATTGTACATATATATAATATATA [XGTACX_site3156]”, the “gcPBM binding intensity (ln)” value was found to be 7.25.
